For part of its entries the source gives two or more results. Only these are listed. An entry can have further records. The records of an entry repeat one measurement across runs, samples, wells, individuals or studies.
Tested on: 171881-019-R-J1-PDC tumor spheroids, viability
Assay: Anticancer human tumor 171881-019-R-J1-PDC patient-derived invasive breast carcinoma cell line growth inhibition [GQUAD]
Conditions: stronger effect = lower value, spheroids with HUVEC and MSC
Description: DNA G-quadruplex Stabilizer Agents in Combinations in Complex Spheroids
A high-throughput screen of multi-cell type tumor spheroids was designed to identify active combinations of DNA G-quadruplex stabilizer agents and targeted small molecules. Complex spheroids include a stromal component modeled by human endothelial cells (HUVEC) and fibroblasts modeled by human mesenchymal stem cells (MSCs). The concentration ranges selected for each drug and investigational agent were based upon clinically achievable concentrations if the clinical Cmax of the agent was known.
Compounds. The drugs and investigational agents: pidnarulex (CX-5461; NSC782164), APTO-253 (NSC789042), BRACO-19 (NSC847499), peposertib (NSC802822), ceralasertib (NSC780249), elimusertib (NSC800525), camonsertib (NSC841442), AZD-1390 (NSC803789), olaparib (NSC753686), talazoparib (NSC767125), ART-558 (NSC835418), sotorasib (NSC818433), MRTX-1133 (NSC836407), SN-38 (NSC673596), topotecan (NSC609699), etoposide (NSC141540), doxorubicin (NSC123127), gemcitabine (NSC613327), 5-fluorouracil (NSC19893), paclitaxel (NSC125973), vemurafenib (NSC761431), panobinostat (NSC761190), R-306465 (JNJ-16241199; NSC773264), adavosertib (NSC754352), TP-3654 (NSC805149), carboplatin (NSC241240), KSQ-4279 (NSC840948), and staurosporine (NSC755774) were obtained from the National Cancer Institute (NCI) Developmental Therapeutics Program Chemical Repository (34). The FDA-approved anticancer drug set is available from the NCI Developmental Therapeutics Program. […] The stock solutions were prepared in dimethyl sulfoxide (DMSO, Sigma-Aldrich, St. Louis, MO, cat. D2650) at 800-fold the tested concentration and stored at -70 degrees C prior to their use. All drugs and investigational agents were tested over a range starting from a high concentration at or near the clinical Cmax and decreasing in half-log increments. If the clinical Cmax for an agent had not been determined, the highest concentration tested was 10 microM.
2.3 Cell Culture. All cells were maintained in an incubator at 37 degrees C and 5% CO2 with 95% humidity. The PDC lines were cultured according to standard operating procedures established by the NCI PDMR. All PDCs were thawed and cultured in Matrigel-coated flasks prepared with a working solution of 1X Ham's F-12 nutrient mix, without supplementation (Invitrogen, cat. 11765054), 100 U/mL penicillin-streptomycin (Invitrogen, cat. 15140122), and 2.5% Matrigel (Corning Inc., cat. 354248) for the first three passages. […]
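Note: spheroids exposed to compounds for 7 days; 100% = DMSO vehicle control viability.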

Row | SMILES | viability, T/C (compound alone 0.316 µM) | viability, T/C (compound alone 1 µM) | viability, T/C (compound alone 3.16 µM)
1 | CN(C)c1ccc(Nc2c3ccc(NC(=O)CCN4CCCC4)cc3nc3cc(NC(=O)CCN4CCCC4)ccc23)cc1 | 74, 44.3, 85.4, 77.4, 85.7, 88.6, 41.4, 45.8, 86.2, 51.7, 77.1, 80.8% |  | 
2 | Cc1[nH]c2ccc(F)cc2c1-c1nc2c3cccnc3c3ncccc3c2[nH]1 | 96.6, 94.7, 98.3, 101, 107, 102, 98.1, 97.4, 84.9, 69.7, 83.6, 78.2% | 89.6, 83.9, 85, 90.5, 86, 92.2, 78.8, 83.7, 70.7, 60.4, 66.3, 61.6% | 31, 30.3, 19.5, 22, 36, 25.2, 23.7, 29.2, 8.94, 5.7, 7.31, 6.31%

Source: PubChem BioAssay AID2060498 (Molecular Pharmacology Branch, DTP, NCI, 2025)
